Reference: patent publication US6706740B2, “Fungicidal heterocyclic aromatic amides and their compositions, methods of use and preparation” (Dow AgroSciences LLC, priority 1999, dated 2004)

test system: Plasmopara viticola—PLASVI; test: whole plant or invertebrate; assay type: in vivo; conditions: Plasmopara, 24 h, read-out: PLASVI in vivo 1 Day Protectant, 100 ppm, 24 hour protectant, grape; control of fungal infection vs untreated plants

| Compound | pest or weed control at 100 ppm |
| --- | --- |
| COc1ccnc(C(=O)NC2c3ccccc3CC2(C)C)c1O (stereo not drawn) [Compound 284] | < 25% |
| COc1ccnc(C(=O)NC2C[C@H](C)C[C@H](c3ccccn3)C2)c1O (stereo partly drawn) [Compound 259] | 25 to 74% |
| COc1ccnc(C(=O)N[C@@H]2CC(C)(C)C[C@](C)(C(=O)N(C)CCc3ccccc3)C2)c1O [Compound 262] | 25 to 74% |
| COc1cc(NC(=O)c2ncccc2O)cc(OC)c1 [Compound 216] | < 25% |
| CC(=O)OC1CCC(NC(=O)c2ncccc2O)CC1 (stereo not drawn) [Compound 209] | < 25% |
| COc1ccnc(C(=O)NC2CSCC(c3ccccc3)C2)c1O (stereo not drawn) [Compound 324] | 25 to 74% |
| CC(NC(=O)c1ncccc1O)c1ccccc1 (stereo not drawn) [Compound 229] | < 25% |
| COc1ccnc(C(=O)NC2CC(C)(C)C(Oc3cc(C(F)(F)F)cc(C(F)(F)F)n3)C(C)(C)C2)c1O (stereo not drawn) [Compound 272] | < 25% |
| O=C(NC1CCC(O)CC1)c1ncccc1O (stereo not drawn) [Compound 208] | < 25% |
| COc1ccnc(C(=O)N[C@H]2CC3CC2C[C@@H]3COCc2cccc(C(F)(F)F)c2)c1O (stereo partly drawn) [Compound 296] | < 25% |
| COc1ccnc(C(=O)NC2CC(C)(C)C3OC3[C@H](C)[C@H]2C)c1O (stereo partly drawn) [Compound 280] | 25 to 74% |
| COc1ccnc(C(=O)N[C@@H]2CC3CC2[C@H]2COC[C@@H]32)c1O (stereo partly drawn) [Compound 302] | 25 to 74% |
| COc1ccnc(C(=O)NC2CCN(Cc3ccccc3)CC2)c1O [Compound 305] | < 25% |
| COc1ccnc(C(=O)N[C@H]2CC3CC2[C@@H](COCc2cccc(C(F)(F)F)c2)C3)c1O (stereo partly drawn) [Compound 295] | 25 to 74% |
| COc1ccnc(C(=O)NC2C3(C)CCC(C3)C2(C)C)c1O (stereo not drawn) [Compound 288] | 25 to 74% |
| COc1ccnc(C(=O)N[C@H]2CC3OC2[C@H](C)[C@@H](OCc2ccccc2)[C@H]3C)c1O (stereo partly drawn) [Compound 321] | < 25% |
| COc1cccc(CNC(=O)c2ncccc2O)c1OC [Compound 227] | < 25% |
| COc1ccnc(C(=O)NC2COC(C)C2)c1O (stereo not drawn) [Compound 310] | 25 to 74% |
| COc1ccnc(C(=O)NC2CCN(Cc3ccc(C)cc3)CC2)c1O [Compound 306] | 25 to 74% |
| Cc1ccnc(C(=O)NC2CC(C)(C)CC(C)(C)C2)c1O [Compound 236] | < 25% |
| COc1ccnc(C(=O)NC2COC3(CC(C)(C)CC(C)(C)C3)OC2)c1O [Compound 315] | < 25% |
| O=C(NCCCCc1ccccc1)c1ncccc1O [Compound 234] | 25 to 74% |
| C[C@H](NC(=O)c1ncccc1O)c1cccc2ccccc12 [Compound 232] | < 25% |
| COc1ccnc(C(=O)NC2CC3CCC2C3)c1O (stereo not drawn) [Compound 287] | 25 to 74% |

same assay, conditions: Plasmopara, 24 h, read-out: PLASVI in vivo 1 Day Protectant, 100 ppm, grape, 24 hour protectant, % control of fungal infection vs untreated plants

| Compound | pest or weed control at 100 ppm |
| --- | --- |
| COc1ccnc(C(=O)N[C@H]2COC(=O)[C@H](Cc3ccccc3)[C@@H](OC(=O)C(C)C)[C@H](C)OC2=O)c1OC(=O)COCc1ccccc1 [Compound 656] | < 25% |
| COc1ccnc(C(=O)N[C@H]2COC(=O)[C@H](Cc3ccccc3)[C@@H](OC(=O)C(C)C)[C@H](C)OC2=O)c1OC(=O)c1cccs1 [Compound 674] | < 25% |
| COc1ccnc(C(=O)Nc2ccc(NC(=O)c3cccc(C(F)(F)F)c3)cc2)c1OC(C)=O [Compound 719] | < 25% |
| COc1ccnc(C(=O)N[C@H]2COC(=O)[C@H](Cc3ccccc3)[C@@H](OC(=O)C(C)C)[C@H](C)OC2=O)c1O[Si](C)(C)C(C)(C)C [Compound 720] | < 25% |
| COCCC(=O)Oc1c(OC)ccnc1C(=O)Nc1cccc(C(=O)Nc2ccc(C(F)(F)F)cc2)c1 [Compound 714] | < 25% |
| COc1ccnc(C(=O)Nc2cccc(Sc3ccc(C(F)(F)F)cc3)c2)c1OC(C)=O [Compound 710] | < 25% |
| COc1ccnc(C(=O)Nc2ccc(C(=O)Oc3ccc(C(F)(F)F)cc3)cc2)c1OC(C)=O [Compound 717] | < 25% |
| COc1ccnc(C(=O)N[C@H]2COC(=O)[C@H](Cc3ccccc3)[C@@H](OC(=O)C(C)C)[C@H](C)OC2=O)c1OC(=O)OCc1ccccc1 [Compound 695] | < 25% |
| COc1ccnc(C(=O)N[C@H]2COC(=O)[C@H](Cc3ccccc3)[C@@H](OC(=O)C(C)C)[C@H](C)OC2=O)c1OC(=O)C1CC1 [Compound 601] | 25 to 74% |
| COc1ccnc(C(=O)N[C@H]2COC(=O)[C@H](Cc3ccccc3)[C@@H](OC(=O)C(C)C)[C@H](C)OC2=O)c1OC(=O)c1ccco1 [Compound 673] | 25 to 74% |

same assay, conditions: Plasmopara, 24 h, read-out: PLASVI in vivo 1 Day Protectant, 100 ppm, grape, 24 hour protectant; control of fungal infection vs untreated plants

| Compound | pest or weed control at 100 ppm |
| --- | --- |
| COc1ccnc(C(=O)N[C@@H](Cc2ccc(OCc3ccccc3)cc2)C(=O)O)c1O [Compound 337] | < 25% |
| COC(=O)C(COC(=O)CC(C)OC(=O)C(C)C)NC(=O)c1nccc(OC)c1O (stereo not drawn) [Compound 347] | < 25% |
| COc1ccnc(C(=O)Nc2ccc(Oc3ccccc3Cl)cc2)c1O [Compound 441] | < 25% |
| COc1cccc(Oc2ccccc2NC(=O)c2nccc(OC)c2O)c1 [Compound 428] | < 25% |
| COc1ccnc(C(=O)Nc2ccccc2Oc2ccccc2C#N)c1O [Compound 418] | < 25% |
| COc1ccnc(C(=O)NC2COC(=O)CC3(CCCCC3)CC(=O)OC2)c1O [Compound 380] | 25 to 74% |
| COc1ccnc(C(=O)Nc2ccc(C(=O)c3ccc(C(F)(F)F)cc3)cc2)c1O [Compound 406] | < 25% |
| COc1ccccc1Oc1ccc(NC(=O)c2nccc(OC)c2O)cc1 [Compound 433] | < 25% |
| COc1ccnc(C(=O)Nc2ccc(Sc3cccc(C(F)(F)F)c3)cc2)c1O [Compound 445] | < 25% |
| CCCCCCCCCCCCC(=O)O[C@H]1[C@H](C)OC(=O)[C@@H](NC(=O)c2nccc(OC)c2O)COC(=O)[C@@H]1Cc1ccccc1 [Compound 397] | < 25% |
| COc1ccnc(C(=O)N[C@H]2COC(=O)[C@H](Oc3ccccc3)[C@@H](OC(=O)C(C)C)[C@H](C)OC2=O)c1O [Compound 403] | < 25% |
| COc1ccnc(C(=O)NC2COC(=O)C[C@H](NC(=O)OCc3ccccc3)C(=O)OC2)c1O (stereo partly drawn) [Compound 376] | 25 to 74% |
| COc1ccnc(C(=O)N[C@@H]2C[C@@H](O[Si](C)(C)C(C)(C)C)O[C@@H](C)[C@@H]2OCc2ccccc2)c1O [Compound 327] | < 25% |
| COc1ccnc(C(=O)Nc2ccc(OC3CC(C)(C)OC(C)(C)C3)cc2)c1O [Compound 459] | < 25% |
| COc1ccnc(C(=O)Nc2ccc(Oc3cccc(Cl)c3)cc2)c1O [Compound 442] | < 25% |
| COc1ccnc(C(=O)Nc2ccc(C(=O)Oc3cccc(C(F)(F)F)c3)cc2)c1O [Compound 451] | < 25% |

same assay, conditions: Plasmopara, 24 h, read-out: PLASVI in vivo 1 Day Protectant, grape plants, 100 ppm, 24 hour protectant; control of fungal infection vs untreated plants

| Compound | pest or weed control at 100 ppm |
| --- | --- |
| COc1ccnc(C(=O)Nc2ccc(Oc3cc(C(F)(F)F)ccn3)cc2)c1O [Compound 461] | < 25% |
| CCOc1ccnc(C(=O)NC2COC(=O)[C@H](Cc3ccccc3)[C@@H](OC(=O)C(C)C)[C@H](C)OC2=O)c1O (stereo partly drawn) [Compound 475] | < 25% |
| COc1ccnc(C(=O)NC(COC(=O)C(C)Cc2ccccc2)C(=O)OC(C)C)c1OC(C)=O (stereo not drawn) [Compound 588] | < 25% |
| CSc1nnc(C(=O)N[C@H]2COC(=O)[C@H](Cc3ccccc3)[C@@H](OC(=O)C(C)C)[C@H](C)OC2=O)c(O)n1 [Compound 547] | 25 to 74% |
| CSc1nnc(C(=O)Nc2ccc(Oc3cccc(C(F)(F)F)c3)cc2)c(O)n1 [Compound 548] | 25 to 74% |
| O=C(Nc1ccc(Oc2cccc(C(F)(F)F)c2)cc1)c1cscc1O [Compound 555] | < 25% |
| CC(NC(=O)c1nc(Br)ccc1O)c1ccc(Oc2ccccc2)cc1 (stereo not drawn) [Compound 490] | 25 to 74% |
| COc1ccnc(C(=O)Nc2ccc(Oc3ccc(C(F)(F)F)cc3)nc2)c1O [Compound 472] | < 25% |
| O=C(NCCc1ccc(Cl)cc1)c1cccnc1O [Compound 518] | 25 to 74% |
| CSc1nnc(C(=O)NC2CC(C)(C)CC(C)(C)C2)c(O)n1 [Compound 545] | 25 to 74% |
| CC1(C)CC(NC(=O)c2cnccc2O)CC(C)(C)C1 [Compound 502] | 25 to 74% |
| CC(C)C(=O)O[C@H]1[C@H](C)OC(=O)[C@@H](NC(=O)c2ccncc2O)COC(=O)[C@@H]1Cc1ccccc1 [Compound 513] | 25 to 74% |
| O=C(Nc1ccc(Oc2ccccc2)cc1)c1cccnc1O [Compound 522] | < 25% |
| O=C(Nc1ccc(Oc2ccc(C(F)(F)F)cc2)cc1)c1nc(Br)ccc1O [Compound 499] | 25 to 74% |
| CC1(C)CC(NC(=O)c2nscc2O)CC(C)(C)C1 [Compound 549] | 25 to 74% |
| COc1ccnc(C(=O)Nc2ccc(Oc3cccc(C(F)(F)F)c3)nc2)c1O [Compound 471] | < 25% |
| O=C(Nc1ccc(Oc2ccccc2C(F)(F)F)cc1)c1nc(Br)ccc1O [Compound 497] | < 25% |
| COc1ccnc(C(=O)N[C@H]2CO[C@@H](C(C)Cc3ccc(C(C)(C)C)cc3)OC2)c1OC(C)=O (stereo partly drawn) [Compound 593] | 25 to 74% |
| COc1ccnc(C(=O)N[C@@H]2C[C@@H](C(F)(F)F)C[C@@H](C(F)(F)F)C2)c1OC(C)=O [Compound 577] | < 25% |
| CC1(C)CC(NC(=O)c2cc(O)cnc2O)CC(C)(C)C1 [Compound 526] | < 25% |
| O=C(Nc1ccc(Oc2cccc(C(F)(F)F)c2)cc1)c1nscc1O [Compound 551] | < 25% |
| CCCCCc1ccc(C(C)NC(=O)c2nc(Br)ccc2O)cc1 (stereo not drawn) [Compound 489] | < 25% |
